{
  "source": "PubChem BioAssay AID504333",
  "about": "(National Center for Advancing Translational Sciences (NCATS), 2011)",
  "note": "Out of some 360,000 compounds screened, about 16,000 (4.4%) were called active. The inconclusive results got no clear call from the source; some entries with a clear call stand among them for comparison. Calls follow the shape of the dose curve; as a rule, active = well fitted inhibition curve with a large enough effect; inconclusive = small, poorly fitted or top-dose-only effect; inactive = no such curve, though single readings can be large or run the other way. A potency beside an inconclusive call is a rough fit, not a confirmed value. % is scaled to controls: 0 for no effect and ±100 for the full control effect; potency is read from the fitted curve at half-maximal effect; tags tell the direction and shape of the fitted curve.",
  "data": [
    {"target": "Bromodomain adjacent to zinc finger domain protein 2B (Homo sapiens) (UniProt Q9UIF8)", "sequence (Q9UIF8 whole entry, looked up, the tested form may be a part)": "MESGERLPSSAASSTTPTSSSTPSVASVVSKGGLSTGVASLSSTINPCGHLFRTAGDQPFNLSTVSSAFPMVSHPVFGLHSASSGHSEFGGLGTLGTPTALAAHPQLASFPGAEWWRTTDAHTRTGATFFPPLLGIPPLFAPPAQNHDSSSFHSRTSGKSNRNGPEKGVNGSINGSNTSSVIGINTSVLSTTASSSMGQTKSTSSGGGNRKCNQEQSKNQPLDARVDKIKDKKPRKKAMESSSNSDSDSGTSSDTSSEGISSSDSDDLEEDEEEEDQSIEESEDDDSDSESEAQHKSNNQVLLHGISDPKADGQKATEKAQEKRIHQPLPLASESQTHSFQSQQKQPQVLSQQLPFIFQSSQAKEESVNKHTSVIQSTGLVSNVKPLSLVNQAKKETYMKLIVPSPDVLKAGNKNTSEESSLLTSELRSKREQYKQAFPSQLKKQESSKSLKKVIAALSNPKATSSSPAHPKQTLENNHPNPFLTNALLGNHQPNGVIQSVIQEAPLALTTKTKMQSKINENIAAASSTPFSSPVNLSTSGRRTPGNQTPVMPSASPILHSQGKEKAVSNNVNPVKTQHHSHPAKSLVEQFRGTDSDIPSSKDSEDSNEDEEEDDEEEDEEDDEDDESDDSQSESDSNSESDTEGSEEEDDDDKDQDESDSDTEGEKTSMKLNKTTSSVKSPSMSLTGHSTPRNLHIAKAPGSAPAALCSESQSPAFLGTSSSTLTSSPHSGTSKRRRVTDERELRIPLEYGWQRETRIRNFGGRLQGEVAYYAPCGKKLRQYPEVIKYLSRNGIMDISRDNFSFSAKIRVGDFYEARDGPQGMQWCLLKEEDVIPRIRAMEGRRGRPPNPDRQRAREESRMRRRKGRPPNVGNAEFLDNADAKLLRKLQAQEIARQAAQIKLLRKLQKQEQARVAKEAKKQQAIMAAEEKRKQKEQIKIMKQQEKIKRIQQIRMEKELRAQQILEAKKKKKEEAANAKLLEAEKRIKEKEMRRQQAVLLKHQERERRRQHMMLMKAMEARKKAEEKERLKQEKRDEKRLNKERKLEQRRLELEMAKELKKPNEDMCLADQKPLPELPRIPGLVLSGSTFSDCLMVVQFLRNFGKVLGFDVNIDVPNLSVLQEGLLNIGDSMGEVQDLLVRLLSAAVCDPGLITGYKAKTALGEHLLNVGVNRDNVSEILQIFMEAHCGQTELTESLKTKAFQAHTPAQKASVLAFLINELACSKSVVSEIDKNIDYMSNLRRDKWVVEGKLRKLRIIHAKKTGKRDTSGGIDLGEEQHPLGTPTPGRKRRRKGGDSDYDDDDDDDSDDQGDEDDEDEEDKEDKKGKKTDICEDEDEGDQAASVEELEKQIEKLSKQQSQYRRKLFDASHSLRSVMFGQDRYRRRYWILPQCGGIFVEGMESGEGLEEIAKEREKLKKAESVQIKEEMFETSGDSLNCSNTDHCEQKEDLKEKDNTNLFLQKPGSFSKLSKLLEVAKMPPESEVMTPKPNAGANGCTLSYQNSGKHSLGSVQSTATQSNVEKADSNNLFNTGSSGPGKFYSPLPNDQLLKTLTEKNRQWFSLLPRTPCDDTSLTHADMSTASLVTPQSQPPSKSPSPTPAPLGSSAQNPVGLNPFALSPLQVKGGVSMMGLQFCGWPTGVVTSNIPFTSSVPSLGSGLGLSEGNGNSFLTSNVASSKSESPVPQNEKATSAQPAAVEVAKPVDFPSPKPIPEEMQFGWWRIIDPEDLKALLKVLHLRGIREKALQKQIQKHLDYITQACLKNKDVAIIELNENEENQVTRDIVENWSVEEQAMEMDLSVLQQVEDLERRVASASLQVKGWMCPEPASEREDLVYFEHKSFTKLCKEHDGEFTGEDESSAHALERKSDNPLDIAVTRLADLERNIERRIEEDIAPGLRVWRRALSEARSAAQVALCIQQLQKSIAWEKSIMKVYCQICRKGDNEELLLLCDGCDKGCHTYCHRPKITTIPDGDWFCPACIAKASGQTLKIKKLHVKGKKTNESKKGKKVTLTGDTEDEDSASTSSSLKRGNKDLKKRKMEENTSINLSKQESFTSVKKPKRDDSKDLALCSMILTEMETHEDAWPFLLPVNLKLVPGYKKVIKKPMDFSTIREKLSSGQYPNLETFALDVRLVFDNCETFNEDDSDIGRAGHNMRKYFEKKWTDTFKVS", "experiment": "qHTS Assay for Inhibitors of BAZ2B; also: nearly all actives have a fitted effect of over 60% in size", "details": "AlphaScreen BAZ2B-H3K14Ac peptide displacement; activity change, negative = inhibition: at 114 µM (top of the series) unless noted", "in_short": "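AlphaScreen displacement: compounds (up to 110uM) incubated 30 min at room temperature with a preformed 50 nM BAZ2B/50 nM biotinylated H3K14Ac peptide complex in PBS pH 7.4 with Tween-20. Donor and acceptor beads at 10 ug/mL final added, 20 min light-protected before reading.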", "values": [
      {"smiles": "COc1cc(C(=O)Oc2c(CN3CCOCC3)cc(Cl)c3cccnc23)cc(OC)c1OC", "Potency": "active: 20 µM"},
      {"smiles": "CCCCOc1ccccc1-c1cc(C(=O)O)[nH]n1", "Potency": "inconclusive: 89.1 µM [inhibitor, single point]"},
      {"smiles": "OC(COc1cccc2ccccc12)CN1CCN(c2ccccc2)CC1", "note": "(configuration not stated)", "Potency": "inconclusive: 44.7 µM [inhibitor, partial curve]"},
      {"smiles": "CCOc1ccc2noc3c2c1C(=O)c1ccccc1-3", "activity change, negative = inhibition": "inactive: -11.4%"},
      {"smiles": "Cc1ccc(O)c(N=Cc2cc(Cc3ccccc3)cc([N+](=O)[O-])c2O)c1", "Potency": "active: 10 µM"},
      {"smiles": "FC(F)(F)c1cc(-c2cccs2)nc2cc(-c3ccccc3)nn12", "activity change, negative = inhibition": "inactive: 21.8%"},
      {"smiles": "Cc1ccc(NC(=S)NNC(=O)c2ccc(N3CCOCC3)c([N+](=O)[O-])c2)cc1Cl", "Potency": "inconclusive: 35.5 µM [inhibitor, full curve]"},
      {"smiles": "O=C(COC(=O)c1cccc(S(=O)(=O)N2CCc3ccccc3C2)c1)NCc1ccco1", "Potency": "active: 50.1 µM"},
      {"smiles": "CCOc1ccc(NC(=O)CNC(=O)c2nn(-c3ccc(OC)c(OC)c3)c(=O)c3ccccc23)cc1", "activity change, negative = inhibition": "inactive: 0.666%"},
      {"smiles": "O=C(CSc1ncccn1)Nc1ccc2[nH]c(=O)[nH]c2c1", "activity change, negative = inhibition": "inactive: 9.28%"},
      {"smiles": "Fc1ccc2[nH]c3c(N4CCN(c5ccccc5)CC4)ncnc3c2c1", "Potency": "active: 39.8 µM"},
      {"smiles": "COc1ccc(C(=O)Nc2nnc(S(=O)(=O)N(C)c3ccc(C)cc3)s2)cc1", "Potency": "inconclusive: 89.1 µM [inhibitor, single point]"},
      {"smiles": "O=C(Nc1cccnc1)c1cccc(-c2cc3ccccc3oc2=O)c1", "Potency": "inconclusive: 100 µM [inhibitor, partial curve]"},
      {"smiles": "CCOc1ccc(NC(=O)c2cc3ccccc3cc2O)cc1", "Potency": "active: 56.2 µM"},
      {"smiles": "COc1ccc(N2CCN(C(=O)COC(=O)CSc3ccccc3)CC2)cc1", "Potency": "inconclusive: 89.1 µM [inhibitor, single point]"},
      {"smiles": "CCOc1ccc(C2C(C#N)=C(C)NC3=C2C(=O)c2ccccc23)cc1", "note": "(configuration not stated)", "Potency": "inconclusive: 7.94 µM [inhibitor, full curve]"},
      {"smiles": "COc1cc(O)c(/C=N/NC(=O)c2ccncc2)c(OC)c1[N+](=O)[O-]", "Potency": "active: 7.94 µM"},
      {"smiles": "O=C(CCN1C(=O)/C(=C/c2ccccc2Cl)SC1=S)NNC(=O)c1ccccc1O", "activity change, negative = inhibition": "inactive: -14.7%"},
      {"smiles": "Cc1ccc(Cn2c(CNC(=O)c3ccc(Cl)c([N+](=O)[O-])c3)nc3cccnc32)cc1", "Potency": "inconclusive: 25.1 µM [inhibitor, full curve]"},
      {"smiles": "CCOc1cc(CNC(=O)Cn2ncn3c(cc4cc(F)ccc43)c2=O)cc(OCC)c1OCC", "activity change, negative = inhibition": "inactive: -2.82%"},
      {"smiles": "C[C@@H](C(=O)Nc1nc(-c2ccccn2)cs1)N1C(=O)C2CCCCC2C1=O", "note": "(some centres not stated)", "Potency": "active: 8.91 µM"},
      {"smiles": "COc1ccc(OC)c(NC(=O)Nc2nnc(N3CCC(C)CC3)s2)c1", "Potency": "inconclusive: 31.6 µM [inhibitor, partial curve]"},
      {"smiles": "O=C(CCn1nc(-c2ccccc2)ccc1=O)NCCCN1CCCCCC1", "Potency": "active: 79.4 µM"},
      {"smiles": "CN1CCN(C(c2ccc(C(F)(F)F)cc2)c2ccc3cccnc3c2O)CC1", "note": "(configuration not stated)", "Potency": "active: 39.8 µM"},
      {"smiles": "O=C(c1ccc(-n2cnnn2)cc1)N1CCCCC1", "activity change, negative = inhibition": "inactive: 9.56%"},
      {"smiles": "CCOc1cc(/C=N/N=C2/NC(=O)C(CC(=O)O)S2)ccc1OCc1ccc(Cl)cc1", "note": "(configuration not stated)", "Potency": "active: 56.2 µM"},
      {"smiles": "O=C(COC(=O)c1ccc(Cl)nc1)Nc1ncc(Cl)cc1Cl", "Potency": "inconclusive: 50.1 µM [inhibitor, partial curve]"},
      {"smiles": "CCC(=O)c1ccc(OCC(=O)OCC(=O)Nc2c(C)n(C)n(-c3ccccc3)c2=O)cc1", "activity change, negative = inhibition": "inactive: 2.28%"},
      {"smiles": "O=C(O)c1ccc(Nc2nc(-c3ccc([N+](=O)[O-])cc3)nc3ccccc23)cc1", "Potency": "active: 50.1 µM"},
      {"smiles": "CC(C)OC(=O)C(C#N)c1nc2ccccc2nc1N1CCN(Cc2ccccc2)CC1", "note": "(configuration not stated)", "Potency": "inconclusive: 5.62 µM [inhibitor, full curve]"},
      {"smiles": "O=C(Nc1ccc(N2CCCC2)cc1)c1ccc(Br)cc1", "Potency": "inconclusive: 89.1 µM [inhibitor, single point]"},
      {"smiles": "COc1ccc(C(=O)c2c3ccc([N+](=O)[O-])cc3[n+]([O-])n2CCCN)cc1", "Potency": "inconclusive: 44.7 µM [inhibitor, partial curve]"},
      {"smiles": "O=C(COC(=O)Cc1n[nH]c(=O)c2ccccc12)Nc1ncc(Cl)cc1Cl", "Potency": "inconclusive: 89.1 µM [inhibitor, single point]"},
      {"smiles": "O=C(c1ccc(N2CCOCC2)nc1)N1CCOCC1", "activity change, negative = inhibition": "inactive: 9.32%"},
      {"smiles": "Cc1ccc(NC(=O)COC(=O)c2ccc([N+](=O)[O-])o2)cc1S(=O)(=O)N1CCCCC1", "Potency": "inconclusive: 39.8 µM [inhibitor, partial curve]"},
      {"smiles": "COc1ccc(-c2nnc(SCC(=O)c3ccc[nH]3)o2)cc1", "Potency": "inconclusive: 89.1 µM [inhibitor, single point]"},
      {"smiles": "O=C(COCc1cc(-c2cccs2)on1)NCc1ccc(F)cc1", "activity change, negative = inhibition": "inactive: 0.185%"},
      {"smiles": "CC(C)c1ccc(NC(=O)C2CCCN2S(=O)(=O)c2ccc3nc(-c4ccccc4)[nH]c3c2)cc1", "note": "(configuration not stated)", "Potency": "inconclusive: 79.4 µM [inhibitor, single point]"},
      {"smiles": "O=S(=O)(c1ccc(-c2csc(=Nc3ccc(F)cc3)n2CCCCCCO)cc1)N1CCCC1", "Potency": "inconclusive: 44.7 µM [inhibitor, partial curve, poor fit]"},
      {"smiles": "Cc1cccc(OCC(=O)Nc2ccc3c(c2)nc(CN2CCCCC2)n3C)c1", "Potency": "inconclusive: 79.4 µM [inhibitor, single point]"},
      {"smiles": "COc1ccccc1CNC(=O)N1CCN(S(=O)(=O)c2ccccc2)CC1", "activity change, negative = inhibition": "inactive: 1.46%"},
      {"smiles": "O=C1CN(C(=O)C2CC2)c2ccccc2N1", "activity change, negative = inhibition": "inactive: -3.48%"},
      {"smiles": "COc1ccc(/C=C/C(=O)NC(=S)NNC(=O)c2cccs2)cc1OC", "activity change, negative = inhibition": "inactive: 10.4%"},
      {"smiles": "CCOC(=O)c1c(C)[nH]c(C(=O)CSc2ccc(Cl)cc2)c1C", "activity change, negative = inhibition": "inactive: -2.1%"},
      {"smiles": "CCN(CC(=O)Nc1ccccc1OC)C(=O)c1ccc2[nH]c3c(c2c1)CC(C)CC3", "note": "(configuration not stated)", "Potency": "inconclusive: 44.7 µM [inhibitor, partial curve]"},
      {"smiles": "COc1ccc(/C=N/NC(=O)C2COc3ccccc3O2)cc1OC", "note": "(configuration not stated)", "Potency": "inconclusive: 89.1 µM [inhibitor, single point]"},
      {"smiles": "CCN(C(=O)c1cc2c(C)nc3ccccc3c2o1)c1cc(Cl)ccc1OC", "Potency": "inconclusive: 79.4 µM [inhibitor, single point]"}
    ]}
  ]
}
